The target of experiment [1] is T1, BD-BP (B…US/KNAT1 fused to the DNA-binding domain of GAL4) (Arabidopsis thaliana) (UniProt P46639).
T1 sequence: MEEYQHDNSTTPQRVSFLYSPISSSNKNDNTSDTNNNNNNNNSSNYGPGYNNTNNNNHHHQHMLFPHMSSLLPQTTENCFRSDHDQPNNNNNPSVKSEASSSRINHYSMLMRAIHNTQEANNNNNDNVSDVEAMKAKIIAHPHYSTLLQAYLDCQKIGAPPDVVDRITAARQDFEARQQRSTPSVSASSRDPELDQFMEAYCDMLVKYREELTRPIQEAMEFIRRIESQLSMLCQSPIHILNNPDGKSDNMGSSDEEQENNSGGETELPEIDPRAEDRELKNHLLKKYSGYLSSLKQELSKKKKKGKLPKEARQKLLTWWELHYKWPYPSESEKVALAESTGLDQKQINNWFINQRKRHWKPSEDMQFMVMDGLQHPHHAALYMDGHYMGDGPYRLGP
In words: two-hybrid; GAL4 AD (pGADT7) and BD (pGBKT7) fusions co-transformed into S. cerevisiae AH109; growth on SD/-Trp/-Leu/-His/-Ade dropout medium.

Sequences of proteins named here, by UniProt entry; tags and fusion partners are left off. A change or cut given only in a name is not applied to a line headed by its entry.
UniProt P14713: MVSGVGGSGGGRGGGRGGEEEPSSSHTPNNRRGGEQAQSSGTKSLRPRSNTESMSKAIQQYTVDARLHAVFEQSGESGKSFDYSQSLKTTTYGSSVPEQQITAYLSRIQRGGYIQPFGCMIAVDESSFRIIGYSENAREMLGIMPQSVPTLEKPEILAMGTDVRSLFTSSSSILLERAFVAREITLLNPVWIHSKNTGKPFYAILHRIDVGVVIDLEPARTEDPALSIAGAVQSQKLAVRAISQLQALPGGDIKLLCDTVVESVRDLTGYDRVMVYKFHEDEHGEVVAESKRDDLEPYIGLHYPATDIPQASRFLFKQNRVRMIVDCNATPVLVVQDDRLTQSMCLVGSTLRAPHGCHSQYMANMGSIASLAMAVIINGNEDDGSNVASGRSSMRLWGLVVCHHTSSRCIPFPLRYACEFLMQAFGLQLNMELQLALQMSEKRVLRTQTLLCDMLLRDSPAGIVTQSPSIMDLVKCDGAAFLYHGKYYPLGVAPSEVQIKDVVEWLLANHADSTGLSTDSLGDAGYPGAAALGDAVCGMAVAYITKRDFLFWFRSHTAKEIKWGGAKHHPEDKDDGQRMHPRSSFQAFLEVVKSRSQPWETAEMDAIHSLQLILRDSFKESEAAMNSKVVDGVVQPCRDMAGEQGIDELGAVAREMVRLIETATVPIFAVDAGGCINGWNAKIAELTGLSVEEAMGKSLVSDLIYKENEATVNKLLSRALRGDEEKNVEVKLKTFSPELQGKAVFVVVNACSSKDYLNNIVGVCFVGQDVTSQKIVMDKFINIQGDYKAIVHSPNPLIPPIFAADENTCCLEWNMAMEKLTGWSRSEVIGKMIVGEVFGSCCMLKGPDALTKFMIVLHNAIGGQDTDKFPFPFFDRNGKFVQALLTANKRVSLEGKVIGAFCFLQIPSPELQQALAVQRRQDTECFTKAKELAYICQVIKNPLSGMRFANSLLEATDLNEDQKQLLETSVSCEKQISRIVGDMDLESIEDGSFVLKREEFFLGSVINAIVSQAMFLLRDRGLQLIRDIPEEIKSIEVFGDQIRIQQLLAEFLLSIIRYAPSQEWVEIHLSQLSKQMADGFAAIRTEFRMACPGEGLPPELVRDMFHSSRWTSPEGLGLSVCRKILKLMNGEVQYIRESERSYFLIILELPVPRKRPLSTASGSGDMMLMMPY

Experiment [2] concerns the target T2, BP-nLUC (BP fused to the N terminus of luciferase) (Arabidopsis thaliana) (UniProt P46639).
T2 sequence: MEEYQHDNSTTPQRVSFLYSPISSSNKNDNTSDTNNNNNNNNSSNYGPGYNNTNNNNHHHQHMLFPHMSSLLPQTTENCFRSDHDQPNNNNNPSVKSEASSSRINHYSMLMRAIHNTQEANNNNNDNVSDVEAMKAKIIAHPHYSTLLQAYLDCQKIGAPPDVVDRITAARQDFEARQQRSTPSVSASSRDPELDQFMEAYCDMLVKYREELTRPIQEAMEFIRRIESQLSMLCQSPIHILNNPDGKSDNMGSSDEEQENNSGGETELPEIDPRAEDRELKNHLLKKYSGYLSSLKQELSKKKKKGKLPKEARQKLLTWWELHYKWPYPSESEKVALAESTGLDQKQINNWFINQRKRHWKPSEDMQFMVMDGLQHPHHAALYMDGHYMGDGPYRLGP
The experiment is described as follows: split reporter; firefly luciferase complementation imaging (LCI); nLUC and cLUC fusions co-expressed in Nicotiana benthamiana leaves by Agrobacterium GV3101, 2 days at 22°C.

Experiment [3] deals with T3, BP-GUS (BP fused to GUS, 35S:BP-GUS transgenic line) (Arabidopsis thaliana) (UniProt P46639).
T3 sequence: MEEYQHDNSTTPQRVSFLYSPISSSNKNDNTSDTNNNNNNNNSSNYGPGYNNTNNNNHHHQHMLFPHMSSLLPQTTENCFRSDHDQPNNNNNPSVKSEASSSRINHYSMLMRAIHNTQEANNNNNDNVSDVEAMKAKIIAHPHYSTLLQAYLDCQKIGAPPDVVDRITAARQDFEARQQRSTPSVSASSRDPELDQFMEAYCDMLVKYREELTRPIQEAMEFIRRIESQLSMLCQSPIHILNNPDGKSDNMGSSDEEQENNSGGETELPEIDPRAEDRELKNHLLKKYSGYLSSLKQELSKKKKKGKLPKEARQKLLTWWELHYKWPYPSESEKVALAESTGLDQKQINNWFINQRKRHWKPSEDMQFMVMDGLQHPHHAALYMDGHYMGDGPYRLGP
In words: co-IP; total protein of imbibed 35S:BP-GUS seeds treated with FR or FR/R and kept 24 h in darkness; immunoprecipitated with anti-GUS antibody and protein A agarose at 4°C, blotted with anti-phyB antibody.

Experiment [4] concerns the target T1, BD-BP (B…US/KNAT1 fused to the DNA-binding domain of GAL4) (Arabidopsis thaliana). In words: two-hybrid; GAL4 AD (pGADT7) and BD (pGBKT7) fusions co-transformed into S. cerevisiae AH109; growth on SD/-Trp/-Leu/-His/-Ade dropout medium. This is another data set of the same source.
Experiment [5] has as its target T2, BP-nLUC (BP fused to the N terminus of luciferase) (Arabidopsis thaliana). The experiment is described as follows: split reporter; firefly luciferase complementation imaging (LCI); nLUC and cLUC fusions co-expressed in Nicotiana benthamiana leaves by Agrobacterium GV3101, 2 days at 22°C. The source holds these as a separate data set.
The target of experiment [6] is T4, BD-PIF1 (Phytochrome-Interacting Factor 1) (Arabidopsis thaliana) (UniProt Q8GZM7).
T4 sequence: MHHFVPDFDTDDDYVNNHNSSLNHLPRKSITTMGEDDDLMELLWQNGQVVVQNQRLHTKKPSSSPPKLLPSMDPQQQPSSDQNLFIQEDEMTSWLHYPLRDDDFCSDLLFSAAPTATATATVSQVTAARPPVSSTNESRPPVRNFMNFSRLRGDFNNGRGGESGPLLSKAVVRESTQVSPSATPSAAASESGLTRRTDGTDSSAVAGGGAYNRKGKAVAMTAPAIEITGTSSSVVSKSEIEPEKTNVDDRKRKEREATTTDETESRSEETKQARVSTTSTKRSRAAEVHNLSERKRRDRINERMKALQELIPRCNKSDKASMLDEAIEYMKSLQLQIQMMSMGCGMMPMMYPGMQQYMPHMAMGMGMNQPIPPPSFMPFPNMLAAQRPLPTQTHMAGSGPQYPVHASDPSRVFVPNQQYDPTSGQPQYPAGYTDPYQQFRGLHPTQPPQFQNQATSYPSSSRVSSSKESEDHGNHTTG
In words: two-hybrid; GAL4 AD (pGADT7) and BD (pGBKT7) fusions co-transformed into S. cerevisiae AH109; growth on SD/-Trp/-Leu/-His/-Ade dropout medium.

Our source for the binding values is article PMC12785155, “Phytochrome B stabilizes the KNOX transcription factor BP/KNAT1 to promote light-initiated seed germination in Arabidopsis thaliana”.

Like-named read-outs stand apart in the source and are kept apart here. Results are given in words; binding and its absence hold for the method and conditions named. For some assays here: Binding seen in cells or lysates may run through a third protein. Some binding calls cover weakened binding; strength is not graded here. Tags and fused reporters may be left off the sequences shown.

Consider “N terminus of phyB (1-650 aa) fused to AD (from UniProt P14713 1-650) (domain or fragment)”, for which the binding entry in experiment [1] is reported as “binds”.

For the molecule “phyB-cLUC (phyB fused to the C terminus of luciferase) (from UniProt P14713 1-1172)”, the binding entry in experiment [2] is listed as “binds”.

Turning to “AD-phyB (phytochrome B fused to the activation domain of GAL4) (from UniProt P14713 1-1172)”, in experiment [1], the binding result is “binds”.

For the molecule “phytochrome B (phyB), endogenous in imbibed seeds (from UniProt P14713 1-1172)”, the binding result in experiment [3] is “binds”.

For “C terminus of phyB (600-1172 aa) fused to AD (from UniProt P14713 600-1172) (domain or fragment)”, in experiment [1], the binding entry was “no binding”.

B1: BD-BP (B…US/KNAT1 fused to the DNA-binding domain of GAL4) (protein, UniProt P46639 1-398)
chain: MEEYQHDNSTTPQRVSFLYSPISSSNKNDNTSDTNNNNNNNNSSNYGPGYNNTNNNNHHHQHMLFPHMSSLLPQTTENCFRSDHDQPNNNNNPSVKSEASSSRINHYSMLMRAIHNTQEANNNNNDNVSDVEAMKAKIIAHPHYSTLLQAYLDCQKIGAPPDVVDRITAARQDFEARQQRSTPSVSASSRDPELDQFMEAYCDMLVKYREELTRPIQEAMEFIRRIESQLSMLCQSPIHILNNPDGKSDNMGSSDEEQENNSGGETELPEIDPRAEDRELKNHLLKKYSGYLSSLKQELSKKKKKGKLPKEARQKLLTWWELHYKWPYPSESEKVALAESTGLDQKQINNWFINQRKRHWKPSEDMQFMVMDGLQHPHHAALYMDGHYMGDGPYRLGP
Take B1: in experiment [4], the binding result is “binds”.

B2: BP-nLUC (BP fused to the N terminus of luciferase) (protein, UniProt P46639 1-398)
chain: MEEYQHDNSTTPQRVSFLYSPISSSNKNDNTSDTNNNNNNNNSSNYGPGYNNTNNNNHHHQHMLFPHMSSLLPQTTENCFRSDHDQPNNNNNPSVKSEASSSRINHYSMLMRAIHNTQEANNNNNDNVSDVEAMKAKIIAHPHYSTLLQAYLDCQKIGAPPDVVDRITAARQDFEARQQRSTPSVSASSRDPELDQFMEAYCDMLVKYREELTRPIQEAMEFIRRIESQLSMLCQSPIHILNNPDGKSDNMGSSDEEQENNSGGETELPEIDPRAEDRELKNHLLKKYSGYLSSLKQELSKKKKKGKLPKEARQKLLTWWELHYKWPYPSESEKVALAESTGLDQKQINNWFINQRKRHWKPSEDMQFMVMDGLQHPHHAALYMDGHYMGDGPYRLGP
Regarding B2, the binding entry in experiment [5] is on record as “binds”.

B3: AD-BP (protein, UniProt P46639 1-398)
chain: MEEYQHDNSTTPQRVSFLYSPISSSNKNDNTSDTNNNNNNNNSSNYGPGYNNTNNNNHHHQHMLFPHMSSLLPQTTENCFRSDHDQPNNNNNPSVKSEASSSRINHYSMLMRAIHNTQEANNNNNDNVSDVEAMKAKIIAHPHYSTLLQAYLDCQKIGAPPDVVDRITAARQDFEARQQRSTPSVSASSRDPELDQFMEAYCDMLVKYREELTRPIQEAMEFIRRIESQLSMLCQSPIHILNNPDGKSDNMGSSDEEQENNSGGETELPEIDPRAEDRELKNHLLKKYSGYLSSLKQELSKKKKKGKLPKEARQKLLTWWELHYKWPYPSESEKVALAESTGLDQKQINNWFINQRKRHWKPSEDMQFMVMDGLQHPHHAALYMDGHYMGDGPYRLGP
For B3, in experiment [6], the binding entry was “no binding”.
